{
  "source": "paper PMC4336329",
  "about": "(PLoS ONE, 2015)",
  "note": "The whole screen tested about 310,000 compounds, of which about 14,000 (4.5%) showed an effect of 50% or more. The effect is printed as a negative number. Some of the results follow.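 Further: peak tail current of the secondary pulse compared with the same well before compound.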",
  "data": [
    {"molecular_target": "human ether-à-go-go-related gene (hERG) potassium channel (human, UniProt Q12809)", "sequence (Q12809 whole entry, looked up)": "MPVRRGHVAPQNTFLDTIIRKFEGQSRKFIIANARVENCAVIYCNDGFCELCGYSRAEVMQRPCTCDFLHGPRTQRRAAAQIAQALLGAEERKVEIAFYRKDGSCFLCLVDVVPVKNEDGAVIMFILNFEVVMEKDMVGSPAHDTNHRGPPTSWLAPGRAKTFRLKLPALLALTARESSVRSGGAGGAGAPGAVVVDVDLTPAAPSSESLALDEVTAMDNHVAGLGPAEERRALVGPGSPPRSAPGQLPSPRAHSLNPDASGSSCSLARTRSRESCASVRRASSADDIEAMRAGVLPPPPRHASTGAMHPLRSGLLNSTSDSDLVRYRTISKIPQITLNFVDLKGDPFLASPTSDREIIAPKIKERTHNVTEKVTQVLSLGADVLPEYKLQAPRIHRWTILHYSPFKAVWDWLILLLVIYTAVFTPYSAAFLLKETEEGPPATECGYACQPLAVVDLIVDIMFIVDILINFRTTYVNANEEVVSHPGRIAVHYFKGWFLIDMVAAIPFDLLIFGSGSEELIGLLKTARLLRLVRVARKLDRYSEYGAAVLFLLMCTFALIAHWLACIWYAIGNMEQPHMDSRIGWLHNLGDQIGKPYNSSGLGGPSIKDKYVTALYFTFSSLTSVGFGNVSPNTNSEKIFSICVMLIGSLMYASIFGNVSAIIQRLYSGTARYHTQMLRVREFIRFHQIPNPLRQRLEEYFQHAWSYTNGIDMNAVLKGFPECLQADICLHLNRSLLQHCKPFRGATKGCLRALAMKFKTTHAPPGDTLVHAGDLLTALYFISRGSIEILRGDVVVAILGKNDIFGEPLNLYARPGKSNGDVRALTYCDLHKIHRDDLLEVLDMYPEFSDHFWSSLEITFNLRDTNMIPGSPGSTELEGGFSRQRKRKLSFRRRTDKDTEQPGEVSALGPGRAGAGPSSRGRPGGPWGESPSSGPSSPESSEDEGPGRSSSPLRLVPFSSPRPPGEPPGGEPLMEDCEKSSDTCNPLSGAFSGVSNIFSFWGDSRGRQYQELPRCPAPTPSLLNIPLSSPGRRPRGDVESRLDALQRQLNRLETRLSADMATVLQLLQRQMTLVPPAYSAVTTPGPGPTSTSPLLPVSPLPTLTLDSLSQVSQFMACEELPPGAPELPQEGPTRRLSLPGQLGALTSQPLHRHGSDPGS", "assay": "primary screen, population patch clamp on CHO cells stably expressing hERG", "units": {"hERG current change (%, negative = inhibition) at 10uM": "%"}, "values": [
      {"smiles": "CCOc1ccc(CCNC(=O)CCN2C(=O)COc3ccccc32)cc1OCC", "hERG current change (%, negative = inhibition) at 10uM": 5.33},
      {"smiles": "NS(=O)(=O)c1ccc(CCNC(=O)Cc2cccs2)cc1", "hERG current change (%, negative = inhibition) at 10uM": 12.2},
      {"smiles": "COc1ccc(/C=C2\\Sc3ccc(C(=O)N4CCOCC4)cc3N(C)C2=O)cc1", "hERG current change (%, negative = inhibition) at 10uM": -15.3},
      {"smiles": "Cc1nnc(NCCN2CCOCC2)[nH]c1=O", "hERG current change (%, negative = inhibition) at 10uM": 9.72},
      {"smiles": "Cc1cc(=O)oc2c(C)c(OCC(=O)NCC3CCC(C(=O)O)CC3)ccc12", "note": "(centres unmarked)", "hERG current change (%, negative = inhibition) at 10uM": 5},
      {"smiles": "CCC(C)NC(=O)CCn1c(-c2ccc(F)cc2)cc(C(C)=O)c1C", "note": "(centres unmarked)", "hERG current change (%, negative = inhibition) at 10uM": -14},
      {"smiles": "Cc1ccc(C)c(NCC(=O)NNC(=S)Nc2ccccc2)c1", "hERG current change (%, negative = inhibition) at 10uM": 18},
      {"smiles": "CC(C)Sc1nc(-c2ccccc2)cc(=O)[nH]1", "hERG current change (%, negative = inhibition) at 10uM": 5.01},
      {"smiles": "Cc1[nH]c2ccccc2c1/C=N/NC(=O)CNC(=O)c1ccco1", "hERG current change (%, negative = inhibition) at 10uM": 10.8},
      {"smiles": "CC(=O)c1c(C)[nH]c(C(=O)OCC(=O)N(C)c2c(N)n(Cc3ccccc3)c(=O)[nH]c2=O)c1C", "hERG current change (%, negative = inhibition) at 10uM": -22.2},
      {"smiles": "O=C1c2cccnc2C(Nc2cccc(F)c2)N1Cc1ccco1", "note": "(centres unmarked)", "hERG current change (%, negative = inhibition) at 10uM": 27.1},
      {"smiles": "CCOC(=O)C1(Cc2ccc(OC)cc2)CCN(S(C)(=O)=O)CC1", "hERG current change (%, negative = inhibition) at 10uM": 25.6},
      {"smiles": "CCS(=O)(=O)c1ccc(-c2csc(-c3ccccc3)n2)c(Cl)c1Cl", "hERG current change (%, negative = inhibition) at 10uM": 18.1},
      {"smiles": "Cc1ccc(NC(=O)C(C)Sc2nnc(C)n2C2CC2)cc1S(=O)(=O)N1CCOCC1", "note": "(centres unmarked)", "hERG current change (%, negative = inhibition) at 10uM": -13.9},
      {"smiles": "O=C1CC(N2CCC(c3nc4ccccc4o3)CC2)C(=O)N1", "note": "(centres unmarked)", "hERG current change (%, negative = inhibition) at 10uM": 15.2},
      {"smiles": "O=C(NCCCn1ccnc1)C1CCN(S(=O)(=O)c2ccc(F)cc2)CC1", "hERG current change (%, negative = inhibition) at 10uM": 13.5},
      {"smiles": "Cc1cc(NC2CCCCC2)nc(N2CCOCC2)n1", "hERG current change (%, negative = inhibition) at 10uM": -18.6},
      {"smiles": "CC1CCN(S(=O)(=O)c2ccc(NN=C(C#N)C#N)cc2)CC1", "hERG current change (%, negative = inhibition) at 10uM": -36.1},
      {"smiles": "CCc1ccc(NC(=O)C2CCN(S(=O)(=O)c3c(C)noc3C)CC2)cc1", "hERG current change (%, negative = inhibition) at 10uM": 4.09},
      {"smiles": "CCc1ccc(N2C(=O)CC(=O)NC2=O)cc1", "hERG current change (%, negative = inhibition) at 10uM": 8.54},
      {"smiles": "Cc1cccc(N2CCN(C(=O)c3cccc(S(=O)(=O)N4CCc5ccccc5C4)c3)CC2C)c1", "note": "(centres unmarked)", "hERG current change (%, negative = inhibition) at 10uM": -1.26},
      {"smiles": "COc1ccc(NC(=O)COC(=O)CCc2cc(OC)c(OC)c(OC)c2)c([N+](=O)[O-])c1", "hERG current change (%, negative = inhibition) at 10uM": -3.66},
      {"smiles": "Br.O=C(O)Cc1sc(N/N=C\\c2ccccc2)nc1-c1ccccc1", "hERG current change (%, negative = inhibition) at 10uM": 7.37},
      {"smiles": "COc1cc(OC)c(NS(=O)(=O)c2cc(C(=O)OC(C)C(=O)NC3CC3)c(Cl)cc2Cl)cc1Cl", "note": "(centres unmarked)", "hERG current change (%, negative = inhibition) at 10uM": -37},
      {"smiles": "O=C1CC(N2CCOCC2)C(=O)N1c1ccccc1Cl", "note": "(centres unmarked)", "hERG current change (%, negative = inhibition) at 10uM": 4.97},
      {"smiles": "CS(=O)(=O)c1ccc(N2CCN(S(=O)(=O)c3cccs3)CC2)c([N+](=O)[O-])c1", "hERG current change (%, negative = inhibition) at 10uM": -67.1},
      {"smiles": "O=C1C2C3CCCC3=C3CCCC3C2C(=O)N1c1ccc(Cl)cc1", "note": "(centres unmarked)", "hERG current change (%, negative = inhibition) at 10uM": 6.23},
      {"smiles": "CC(C)=CCN1CCN(Cc2ccc(N3CCNC3=O)cc2)CC1CCO", "note": "(centres unmarked)", "hERG current change (%, negative = inhibition) at 10uM": 13.9},
      {"smiles": "C=CCOn1c(=O)c(-c2cccs2)[n+]([O-])c2ccccc21", "hERG current change (%, negative = inhibition) at 10uM": -11.1},
      {"smiles": "CCN(CC)c1ccc(NC(=O)COc2ccc(N(C)S(=O)(=O)c3cccs3)cc2)cc1", "hERG current change (%, negative = inhibition) at 10uM": 8.15},
      {"smiles": "COCCn1c(SCC(=O)Nc2cccc(OC)c2)nnc1-c1ccc(Cl)cc1", "hERG current change (%, negative = inhibition) at 10uM": -43.7},
      {"smiles": "Cc1ccc2c(c1)/C(=N/OC(=O)c1ccc(F)cc1)CCS2", "hERG current change (%, negative = inhibition) at 10uM": 6.83},
      {"smiles": "Cc1ccc(C(=O)N[C@H](C(=O)Nc2cc(Cl)cc(Cl)c2)C(C)C)cc1", "hERG current change (%, negative = inhibition) at 10uM": 12.1},
      {"smiles": "CNc1nc(Nc2ccccc2)nc(OCC(F)(F)F)n1", "hERG current change (%, negative = inhibition) at 10uM": -10.2},
      {"smiles": "CCN1C(=O)c2cccc3c(S(=O)(=O)NCc4ccco4)ccc1c23", "hERG current change (%, negative = inhibition) at 10uM": -11.2},
      {"smiles": "Cc1[nH]nc(SCC(=O)Nc2ccc(C#N)cc2)c1[N+](=O)[O-]", "hERG current change (%, negative = inhibition) at 10uM": 3.18},
      {"smiles": "COc1cc(/C=C2\\SC(=O)N(CC(=O)Nc3cccc(C)c3)C2=O)ccc1OC(C)C(=O)O", "note": "(centres unmarked)", "hERG current change (%, negative = inhibition) at 10uM": 7.11},
      {"smiles": "CCOC(=O)C(=O)Nc1cc(C)on1", "hERG current change (%, negative = inhibition) at 10uM": 26.8},
      {"smiles": "Cc1ccc(S(=O)(=O)N/N=C/c2cccs2)cc1", "hERG current change (%, negative = inhibition) at 10uM": 9.65},
      {"smiles": "Cc1c(F)cccc1NS(=O)(=O)c1ccc2c(c1)c(C)cc(=O)n2C", "hERG current change (%, negative = inhibition) at 10uM": -8.65},
      {"smiles": "O=C(COc1ccc(-n2cnnn2)cc1)Nc1cccc(Cl)c1Cl", "hERG current change (%, negative = inhibition) at 10uM": 16.8},
      {"smiles": "CN(CCCNC(=O)CCCOc1cc(=O)n(C)c2ccccc12)Cc1ccccc1", "hERG current change (%, negative = inhibition) at 10uM": -11},
      {"smiles": "O=C(NCCc1ccccc1)c1ccc(OCCOc2ccccc2)cc1", "hERG current change (%, negative = inhibition) at 10uM": 18.6},
      {"smiles": "Cc1ccc(-c2nnn(CCOc3cccc(Br)c3)n2)cc1", "hERG current change (%, negative = inhibition) at 10uM": 2.7},
      {"smiles": "CC(C)CCNC(=O)C(c1ccncc1)N(CC1CCCO1)C(=O)Cn1nnc(-c2ccc(F)cc2)n1", "note": "(centres unmarked)", "hERG current change (%, negative = inhibition) at 10uM": -64.8},
      {"smiles": "Cc1ccc(N=Cc2c(C)[nH]n(-c3ccccc3)c2=O)nc1", "hERG current change (%, negative = inhibition) at 10uM": -9.76},
      {"smiles": "CCOC(=O)NNc1ccc2nonc2c1[N+](=O)[O-]", "hERG current change (%, negative = inhibition) at 10uM": 10.1},
      {"smiles": "Cc1ccc(NC(=O)c2cccc3cccnc23)cc1", "hERG current change (%, negative = inhibition) at 10uM": 8.79},
      {"smiles": "CCC(N=c1cc(-c2ccc(OC)c(OC)c2)oc2ccc(C)cc12)C(=O)O", "note": "(centres unmarked)", "hERG current change (%, negative = inhibition) at 10uM": -20.7},
      {"smiles": "CCCn1nc(C(=O)N2CC(=O)Nc3ccccc32)c2ccccc2c1=O", "hERG current change (%, negative = inhibition) at 10uM": 0.424},
      {"smiles": "Cc1ccc(F)cc1S(=O)(=O)NCc1ccc(N2CCN(C)CC2)cc1", "hERG current change (%, negative = inhibition) at 10uM": -20.8},
      {"smiles": "COc1ccc([C@H]2CC(=O)C=C(c3ccc(Cl)c(C(F)(F)F)c3)C2)cc1", "hERG current change (%, negative = inhibition) at 10uM": -6.76},
      {"smiles": "Cc1ccc(N(CC(=O)NCCSc2nc3ccccc3s2)S(=O)(=O)c2ccccc2)c(C)c1", "hERG current change (%, negative = inhibition) at 10uM": -42.1},
      {"smiles": "CCN(CC)CCCNC(=O)CCC(=O)NNc1nc2ccccc2c2nc(C)nn12", "hERG current change (%, negative = inhibition) at 10uM": 7.92},
      {"smiles": "CC(=O)c1ccc(OCC(=O)NCc2ccc(F)cc2)cc1", "hERG current change (%, negative = inhibition) at 10uM": -11.5},
      {"smiles": "CC1CN(S(=O)(=O)c2cccc(C(=O)OC(C)C(=O)NC3CCCCC3C)c2)CC(C)O1", "note": "(centres unmarked)", "hERG current change (%, negative = inhibition) at 10uM": -25.8}
    ]}
  ]
}
